Measurements taken from patent US20240287457A1, “COMPOSITIONS AND CELL CULTURE MEDIA FOR INCREASING NEUTROPHIL LIFESPAN” (THE CHILDREN'S MEDICAL CENTER CORPORATION, priority 2021, published 2024).

System: murine neutrophils
Test: In vitro neutrophil death / survival of cultured murine neutrophils
Assay type: cell-based, mouse
Details: 12.5 mM

Question: With `CC(=O)N[C@@H](CS)C(=O)O` [N-acetyl cysteine] as the molecule, how does the “Neutrophil survival after 3 days - normalized to fresh neutrophils (100)” value read?
Answer: <10
